Assay results taken from patent US20240209061A1 (Pfizer, published 2024).
“And” between values parts separate entries of the source, which are not always exact repeats. Identical values can stand only once. Like-named read-outs stand apart in the source and are kept apart here.

What was measured:
[1] = biological target: T1, CD28 expressed on Jurkat T cell line / human T cells (human, UniProt P10747 19-220); assay: cell-based or functional assay
[2] = biological target: T1, CD28 expressed on Jurkat T cell line / …; assay: cell-based or functional assay; remark: listed apart in the source
[3] = biological target: T1, CD28 expressed on Jurkat T cell line / …; assay: cell-based or functional assay; remark: listed apart in the source
[4] = biological target: T2, insulin; assay: insulin-binding ELISA (non-specific binding)
T2 construct: Polyspecificity reagent
T2 sequence (P01308 25-54, chain 1 of 2): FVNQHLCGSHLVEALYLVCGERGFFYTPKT
T2 sequence (P01308 90-110, chain 2 of 2): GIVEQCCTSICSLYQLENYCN
Procedure: (§1) Variant CD80-Fc fusion proteins were assessed by measuring non-specific binding using a DNA- and insulin-binding ELISA (Avery et al., MAbs. 2018 February/March; 10(2): 244-255) and for self-interaction in an AC-SINS assay (affinity-capture self-interaction nanoparticle spectroscopy; Liu et al., 2014, mAbs 6:483-92). DNA- and insulin-binding scores were calculated as the signal ratio of the ELISA signal of the CD80-Fc fusion protein at 10 μg/ml to the ELISA signal in the absence of the Fc-fusion protein (buffer only). For the AC-SINS assay, proteins are captured by anti-human Fc antibodies coated on gold nanoparticles. […] The score ranges obtained from these in vitro assays correlate well with in vivo clearance using huFcRn transgenic (Tg32) mouse. Therapeutic proteins with high scores are at high risk for rapid clearance and unfavorable PK and therapeutics that score low are at low risk and favorable PK.

[5] = biological target: T1, CD28 expressed on Jurkat T cell line / …; assay: flow cytometry on Jurkat cells, PE anti-human Fc detection
Procedure: Binding affinity of CD80-Fc fusion proteins (WT and variant) against CD28 expressed on Jurkat T cell line (ATCC TIB-152) was measured by flow cytometry. Jurkat cells (100,000 cells suspended in 100 μL PBS supplemented with 0.5% BSA, 2 mM EDTA, and 10% normal goat serum) were incubated with CD80-Fc fusion proteins at concentrations ranging 0.025-500 nM on ice for 30 minutes. Cells were then washed with PBS supplemented with 0.5% BSA and 2 mM EDTA twice. […] Afterward, cells were washed with PBS supplemented with 0.5% BSA and 2 mM EDTA twice. Finally, cells were suspended in PBS containing 0.5 μg/mL 7-amino-actinomycin D and acquired on BD LSRFortessa X-20 flow cytometer. Data were analyzed by Flowjo v10 software (Flowjo, LLC). FIG. 3 and Table 1 show the binding affinity of CD80-Fc fusion proteins (WT and variants) against CD28 expressed on Jurkat cells.

[6] = biological target: T1, CD28 expressed on Jurkat T cell line / …; assay: cell-based or functional assay; remark: listed apart in the source
[7] = biological target: T1, CD28 expressed on Jurkat T cell line / …; assay: cell-based or functional assay; remark: listed apart in the source
[8] = biological target: T3, recombinant soluble mouse CD28 (mouse, UniProt P31041 20-150, limits assumed); assay: SPR (Biacore 8K+, 37 C), CD28 immobilised, CD80-Fc as analyte; bivalent apparent KD ± SE
Procedure: (§2) Binding affinity of CD80-Fc fusion proteins against recombinant soluble CD28 and CTLA-4 proteins was determined by surface plasmon resonance (SPR) using a Biacore 8K+ instrument at 37° C. (physiologic temperature) with a collection rate of 10 Hz. Purified soluble ligands were covalently coupled onto a CM5 sensor chip using an Amine coupling Kit (GE Healthcare, Product #BR100050) following the manufacturer's recommendations. Three-fold serial dilutions of the CD80-Fc fusion protein analytes in HBS-EP+ running buffer (10 mM HEPES pH 7.4, 0.15 M NaCl, 3 mM EDTA, 0.05% P-20), ranging in concentration from 900 nM to 11.1 nM, were injected for 55 sec over the directly immobilized ligands at a flow rate of 50 μLs/min. The flow was again returned to running buffer and dissociation was monitored for 300 sec.

[9] = biological target: T4, recombinant soluble rat CD28 (rat, UniProt P31042 20-150, limits assumed); assay: as above
Procedure: as §2

[10] = biological target: T5, recombinant soluble human CD28 (human, UniProt P10747 19-152); assay: as above
T5 construct: Called only 'recombinant soluble'; also called soluble CD28
Procedure: as §2

[11] = biological target: T3, recombinant soluble mouse CD28; assay: as above; remark: listed apart in the source
T3 sequence (P31041 20-150 limits assumed): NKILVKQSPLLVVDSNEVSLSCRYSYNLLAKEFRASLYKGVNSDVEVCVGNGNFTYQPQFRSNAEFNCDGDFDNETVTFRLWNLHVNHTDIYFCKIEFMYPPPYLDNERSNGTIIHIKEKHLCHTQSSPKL
Procedure: as §2

[12] = biological target: T4, recombinant soluble rat CD28; assay: as above; remark: listed apart in the source
T4 sequence (P31042 20-150 limits assumed): as the sequence (P31041 20-150 limits assumed) above, with S15N, S62P, A64V, E65G, D71N, H85D, F98V, R109K, T125A, S127T counted along it
Procedure: as §2

[13] = biological target: T5, recombinant soluble human CD28; assay: as above; remark: listed apart in the source
Procedure: as §2

[14] = biological target: T6, recombinant soluble rat CTLA-4 (rat, UniProt Q62859 36-161); assay: SPR (Biacore 8K+, 37 C), CTLA-4 immobilised, CD80-Fc as analyte; bivalent apparent KD ± SE
Procedure: as §2

[15] = biological target: T7, recombinant soluble mouse CTLA-4 (mouse, UniProt P09793 36-161, limits assumed); assay: as above
Procedure: as §2

[16] = biological target: T8, recombinant soluble human CTLA-4 (human, UniProt P16410 36-161); assay: as above
Procedure: as §2

[17] = biological target: T2, insulin; assay: insulin-binding ELISA (non-specific binding); remark: listed apart in the source
Procedure: as §1

[18] = biological target: T1, CD28 expressed on Jurkat T cell line / …; assay: cell-based or functional assay; remark: listed apart in the source
[19] = biological target: T6, recombinant soluble rat CTLA-4; assay: SPR (Biacore 8K+, 37 C), CTLA-4 immobilised, CD80-Fc as analyte; bivalent apparent KD ± SE; remark: listed apart in the source
T6 sequence (Q62859 entry or part of it limits assumed): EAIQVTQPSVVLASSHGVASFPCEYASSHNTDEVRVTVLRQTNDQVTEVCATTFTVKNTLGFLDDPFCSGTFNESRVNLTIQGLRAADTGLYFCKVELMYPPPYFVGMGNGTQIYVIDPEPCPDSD
Procedure: as §2

[20] = biological target: T7, recombinant soluble mouse CTLA-4; assay: as above; remark: listed apart in the source
T7 sequence (P09793 36-161 limits assumed): as the sequence (Q62859 entry or part of it limits assumed) above, with A26S, S27P, V46M, V56E, L60V, D65Y, A87V, F93L counted along it
Procedure: as §2

[21] = biological target: T8, recombinant soluble human CTLA-4; assay: as above; remark: listed apart in the source
T8 sequence (P16410 36-161 limits assumed): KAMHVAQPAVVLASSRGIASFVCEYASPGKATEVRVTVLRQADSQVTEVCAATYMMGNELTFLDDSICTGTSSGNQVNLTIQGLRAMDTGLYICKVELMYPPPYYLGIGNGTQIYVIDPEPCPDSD
Procedure: as §2

[22] = biological target: T1, CD28 expressed on Jurkat T cell line / …; assay: cell-based or functional assay; remark: listed apart in the source
[23] = biological target: T9, human PD-L1 (human, UniProt Q9NZQ7 in part, limits assumed); assay: SPR (Biacore), human PD-L1 immobilised, CD80-Fc as analyte
T9 construct: also called immobilized human PD-L1

[24] = biological target: T5, recombinant soluble human CD28; assay: SPR (Biacore 8K+, 37 C), human CD28 immobilised
Procedure: as §2

[25] = biological target: T9, human PD-L1; assay: SPR (Biacore): human PD-L1 immobilised at 60 ug/ml on the chip, CD80-Fc injected at 11.1-900 nM
T9 sequence (Q9NZQ7 19-238 limits assumed): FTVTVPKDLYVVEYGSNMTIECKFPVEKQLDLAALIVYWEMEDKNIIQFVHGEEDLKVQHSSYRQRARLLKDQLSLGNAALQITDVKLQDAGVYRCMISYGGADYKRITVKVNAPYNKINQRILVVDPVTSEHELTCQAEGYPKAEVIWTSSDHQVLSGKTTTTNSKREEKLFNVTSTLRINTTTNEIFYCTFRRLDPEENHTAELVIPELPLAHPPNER

Row | IL-2 EC50, human PBMC assay with plate-bound anti-CD3 (average of 5 donors) [1] [nM] | Fold-increase over background (CD3 stimulation alone), Jurkat IL-2 reporter assay [3] [fold] | Insulin Score [4] | IL-2 EC50, human PBMC assay, donor 379, anti-CD3 1 ug/ml [7] [nM] | Kd [8] [nM] | Kd [9] [nM] | Kd [10] [nM] | Kd [11] [nM] | Kd [12] [nM] | Kd [13] [nM] | Kd [14] [nM] | Kd [15] [nM] | Kd [16] [nM] | Insulin Score [17] | Kd [19] [nM] | Kd [20] [nM] | Kd [21] [nM] | Binder | also measured
1 | 23.6 | 3.6 | 1 ratio of ELISA signal at 10 µg/ml to buffer only | 41 | 1150 | 823 | 2310 | 1370 | 827 | 1690 | 62.6 | 126 | 108 | 1 ratio of ELISA signal at 10 µg/ml to buffer only | 50.4 | 132 | 96.1 | CD80-WT-Fc (Fc fusion, also called WT CD80-Fc; wild-type CD80-Fc fusion protein) VIHVTKEVKEVATLSCGHNVSVEELAQTRIYWQKEKKMVLTMMSGDMNIWPEYKNRTIFDITNNLSIVILALRPSDEGTYECVVLKYEKDAFKREHLAEVTLSVKADFPTPSISDFEIPTSNIRRIICSTSGGFPEPHLSWLENGEELNAINTTVSQDPETELYAVSSKLDFNMTTNHSFMCLIKYGHLRVNQTFNWNTTKQEHFPDN[sequence of human IgG1 Fc with C220S (EU numbers) omitted] | EC50, luciferase reporter, Jurkat-IL-2-Luc and HCT116-CD64 co-culture [2]: 82.5 ng/mL and 0.836 nM; Kd [5]: 162 nM; EC50, IL-2 release, primary T cell and HCT116-CD64 co-culture [6]: 114 ng/mL and 1.15 nM; IL-2 EC50, human PBMC assay, donor 418, anti-CD3 0.3 ug/ml [7]: 6.24 nM; EC50, luciferase reporter, Jurkat-CTLA-4-IL-2-Luc and HCT116-CD64 co-culture [18]: 1.4 nM; EC50, luciferase reporter, Jurkat-NYESO1-IL-2-Luc and A375-CD64 co-culture [22]: 38.9 ng/mL and 0.394 nM; Kd [23]: > 1000 nM
2 | – | 7.75 | – | 3.52 | – | – | – | 478 | 375 | 92.4 | 126 | 212 | 115 | 1 ratio of ELISA signal at 10 µg/ml to buffer only | – | – | – | CD80-K89D-D90K-T28V-T57V-Fc (Fc fusion, Non-cysteine stabilized variant) VIHVTKEVKEVATLSCGHNVSVEELAQVRIYWQKEKKMVLTMMSGDMNIWPEYKNRVIFDITNNLSIVILALRPSDEGTYECVVLKYEDKAFKREHLAEVTLSVKADFPTPSISDFEIPTSNIRRIICSTSGGFPEPHLSWLENGEELNAINTTVSQDPETELYAVSSKLDFNMTTNHSFMCLIKYGHLRVNQTFNWNTTKQEHFPDN[sequence of human IgG1 Fc with C220S (EU numbers) omitted] | fold increase of affinity over WT CD80-Fc fusion protein [24]: 18 fold; binding result [25]: no binding (tested: 900 nM)
3 | 11.5 | 6 | 1 ratio of ELISA signal at 10 µg/ml to buffer only | – | 955 | 856 | 1100 | – | – | – | – | – | – | – | 205 | 407 | 291 | CD80-K89Q-D90Q-E23C-A26C-Fc (Fc fusion, Disulfide stabilized variant; also called CD80-Fc K89Q-D90Q-E23C-A26C) VIHVTKEVKEVATLSCGHNVSVCELCQTRIYWQKEKKMVLTMMSGDMNIWPEYKNRTIFDITNNLSIVILALRPSDEGTYECVVLKYEQQAFKREHLAEVTLSVKADFPTPSISDFEIPTSNIRRIICSTSGGFPEPHLSWLENGEELNAINTTVSQDPETELYAVSSKLDFNMTTNHSFMCLIKYGHLRVNQTFNWNTTKQEHFPDN[sequence of human IgG1 Fc with C220S (EU numbers) omitted] | –
